Reference: publication PMC8238248
These are yes or no findings as the source states them, for the method shown. For some assays here: Binding seen in cells or lysates may run through a third protein. Some results given as binding are weak or reduced against the parent protein; the word gives no strength.

The chains behind the UniProt entries cited, without tags or fusion partners. Where a name states a change or a piece, a line headed by the entry shows the natural chain unless it says otherwise. A line that says so, or that is headed by a name, gives the form on record, which may keep a tag or linker. Residues count along the entry.
UniProt P08195, residues 102-630: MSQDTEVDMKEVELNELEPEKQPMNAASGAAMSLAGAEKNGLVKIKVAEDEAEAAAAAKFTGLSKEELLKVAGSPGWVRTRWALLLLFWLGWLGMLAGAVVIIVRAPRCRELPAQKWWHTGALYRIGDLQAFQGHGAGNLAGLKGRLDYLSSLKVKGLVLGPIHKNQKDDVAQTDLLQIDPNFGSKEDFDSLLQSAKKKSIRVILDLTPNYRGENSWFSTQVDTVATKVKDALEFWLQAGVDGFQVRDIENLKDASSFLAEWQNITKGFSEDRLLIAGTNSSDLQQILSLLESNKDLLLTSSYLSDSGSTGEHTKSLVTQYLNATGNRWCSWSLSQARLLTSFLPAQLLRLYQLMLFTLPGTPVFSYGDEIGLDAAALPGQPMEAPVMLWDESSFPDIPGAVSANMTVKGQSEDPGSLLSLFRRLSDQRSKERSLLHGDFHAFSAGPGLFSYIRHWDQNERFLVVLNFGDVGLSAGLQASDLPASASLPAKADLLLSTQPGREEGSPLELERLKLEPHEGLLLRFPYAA
UniProt P10852: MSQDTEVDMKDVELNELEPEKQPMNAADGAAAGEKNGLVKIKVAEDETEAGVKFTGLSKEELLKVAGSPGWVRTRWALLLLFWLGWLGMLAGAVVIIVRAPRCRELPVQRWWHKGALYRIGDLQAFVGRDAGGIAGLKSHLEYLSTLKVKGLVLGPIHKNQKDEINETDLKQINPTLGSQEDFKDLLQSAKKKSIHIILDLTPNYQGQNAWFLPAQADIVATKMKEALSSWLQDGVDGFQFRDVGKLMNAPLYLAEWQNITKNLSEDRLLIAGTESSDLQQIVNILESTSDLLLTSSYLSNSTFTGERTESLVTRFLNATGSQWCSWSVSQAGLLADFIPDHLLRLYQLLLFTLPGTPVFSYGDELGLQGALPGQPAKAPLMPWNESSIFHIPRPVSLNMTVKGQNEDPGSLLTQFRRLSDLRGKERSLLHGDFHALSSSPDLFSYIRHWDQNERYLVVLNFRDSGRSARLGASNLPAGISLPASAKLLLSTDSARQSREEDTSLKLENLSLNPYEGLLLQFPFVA
UniProt Q01650: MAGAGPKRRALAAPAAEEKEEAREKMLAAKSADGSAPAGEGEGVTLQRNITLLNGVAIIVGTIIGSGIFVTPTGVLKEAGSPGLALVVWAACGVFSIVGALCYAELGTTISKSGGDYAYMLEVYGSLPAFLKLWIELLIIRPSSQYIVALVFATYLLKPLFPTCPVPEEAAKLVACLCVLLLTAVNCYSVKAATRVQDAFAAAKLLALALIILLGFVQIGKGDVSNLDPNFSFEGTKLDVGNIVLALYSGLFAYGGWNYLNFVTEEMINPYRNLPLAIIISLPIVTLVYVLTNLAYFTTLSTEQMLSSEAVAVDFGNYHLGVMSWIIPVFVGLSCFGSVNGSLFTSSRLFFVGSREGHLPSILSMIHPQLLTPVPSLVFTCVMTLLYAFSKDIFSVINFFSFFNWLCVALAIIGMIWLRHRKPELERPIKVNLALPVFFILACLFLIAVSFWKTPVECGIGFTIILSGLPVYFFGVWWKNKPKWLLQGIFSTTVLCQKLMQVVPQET
human mutant (164S) L-type amino acid transporter 1 (LAT1)/SLC7A5 (Q01650, form named): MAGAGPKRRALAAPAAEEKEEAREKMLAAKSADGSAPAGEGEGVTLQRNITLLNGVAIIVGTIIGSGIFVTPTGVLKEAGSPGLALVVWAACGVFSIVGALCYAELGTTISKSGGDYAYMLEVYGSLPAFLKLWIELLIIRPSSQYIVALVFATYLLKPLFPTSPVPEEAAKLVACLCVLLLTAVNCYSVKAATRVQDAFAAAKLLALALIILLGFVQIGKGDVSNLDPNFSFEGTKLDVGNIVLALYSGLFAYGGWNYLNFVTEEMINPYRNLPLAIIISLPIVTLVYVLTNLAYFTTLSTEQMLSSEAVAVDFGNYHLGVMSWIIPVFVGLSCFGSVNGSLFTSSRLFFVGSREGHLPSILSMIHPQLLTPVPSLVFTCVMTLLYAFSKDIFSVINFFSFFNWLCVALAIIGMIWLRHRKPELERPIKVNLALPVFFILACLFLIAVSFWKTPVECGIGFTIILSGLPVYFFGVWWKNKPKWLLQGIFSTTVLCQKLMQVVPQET

Experiments:
[1] = molecular target: endogenous human CD98 heavy chain (CD98hc/SLC3A2) (human (endogenous in HEK293, HeLa, HT29, MIA PaCa-2)) (UniProt P08195); assay: SDS-PAGE under non-reducing conditions with western blot; cell lysates run on SDS-PAGE under reducing or non-reducing conditions; WB with anti-LAT1 rabbit pAb; 125 kDa disulfide-linked complex against 40 kDa LAT1
[2] = molecular target: endogenous mouse CD98 heavy chain (CD98hc/SLC3A2) (mouse (endogenous in NIH/3T3)) (UniProt P10852); assay: as above
[3] = molecular target: endogenous mouse CD98 heavy chain (CD98hc/SLC3A2) (mouse (endogenous in NIH/3T3)) (UniProt P10852); assay: co-IP; lysates of NIH/3T3 cell lines (150 mM NaCl, 50 mM Tris pH 7.4, 1% Nonidet P-40); IP with anti-mouse CD98hc mAb MB872 and protein G Sepharose at 4°C; DTT-free SDS sample buffer; WB with anti-human LAT1 rabbit pAb

“endogenous human L-type amino acid transporter 1 (LAT1)/SLC7A5 (from UniProt Q01650 1-507)” was tested, and the binding [1] was “binds”.

With “human mutant (164S) L-type amino acid transporter 1 (LAT1)/SLC7A5 (from UniProt Q01650 1-507)” the binding [2] was “no binding” and the binding [3] was “no binding”.

“human native (164C) L-type amino acid transporter 1 (LAT1)/SLC7A5 (from UniProt Q01650 1-507)” was tested, and the binding [2] was “binds” and the binding [3] was “binds”.
